Results published in the RNAGym collection of RNA variant scans (doi:10.7554/elife.90254).
Read counts are not given, so values of variants with three or more changes are uncertain.

B1: OR4K15 (parent)
chain: GUUAACGGUCAUAGGCCAUGGAAACUAGGAGCACCAUUUCGCUGCCAGUGAAGAAAUGAACAAAGAAAAUCUGGGCCAGGCAGGCAUCAAAAGAAAUAGUCUUGCGCUCAACCAGAAAGUCUGUAAUCAUUUUAAGGGUA

Variants of: B1
Assay: self-cleavage, relative activity (ratio to wild type); higher = more cleavage; in vitro, sequencing; the parent is a self-cleaving ribozyme

Variant | self-cleavage
U12C G48A A52G A55G A116G A126G | 0.2
A23C A24G G74A | 0.36
A5G A60U A86U | 1.66
U19C U26C U37C A94G | 1.22
A62G A78G A116U | 0.08
A23G U38C A54G A94U | 1.31
A54G U87C A116G | 0.35
U37A A89G A111G | 0.03
A13C A69G U70C U127A | 0.49
A51G A69G U108C U132C | 0.01
A24G A59G A95G U102A | 1.29
A59G A96G A111G A117U | 0.03
U9C A27G U39C G74A | 0.22
A47C A86G A90G | 0.59
A23G C42U A51G U57C A62U U108C A126G | 0.01
U3C A47U A134G | 1.33
U43A A69G A92G A118G | 0.67
A23G A82G A116U U124A | 0
A11U U102C U108A A114G A129U | 0
A4G A24G A95G U130C | 1.32
A69G U103G A126G U139C | 0.02
A11G A18G A118G | 1.18
A11G A94G A96G U130A | 0.42
U49C U102A A111U | 0.14

Variant | self-cleavage
A63G A110G U127C | 0.32
U43A A92G A111G U124C | 0.01
U12C U70A U87C A114C A126U U130C | 0
A27G C35A A69G A95G | 1.27
A4G A36G A62C | 0.7
A68C U102A U120A | 1.68
A24G A86G G104A A117G | 0.05
U19A U103C U108C | 0
U19C U87G U103C | 0.11
A18U U102C A111G | 0.01
A47U A82G A92G U108C | 0.01
U19A U49C U87C | 1.56
A55G C71U U130C | 0.15
A4G A13U C32U U72C | 0.39
U19A A98G C121U | 0.83
A5G U12G U43G A51G G80C | 0.05
A69G A90G G138A | 1.23
A116G U122C U131C | 0.27
A4G U39C A126G | 0.78
A98G U122C A140G | 0.45
U100C U130C U131C | 2.28
U9C A91G A114G | 0.46
A27G G115A A126G | 0.03
A59U U102C A111G | 0.01

Variant | self-cleavage
U12A A24G U103C | 0.87
A33G A56G A110G U127C | 0.04
C32A A33G C45U A69U A89U A91G | 1.67
C77U A92U U108C G119A | 0
U43C G79A U97G | 0.12
A5G A60G A82U A86G U122C U127C | 0.09
A22G A68G A89G A118G G137A | 0.99
A23G U108C U131G | 0
A27G U38C A69U A82G A94U | 0.43
G31C A96C A111U U139A | 0.02
A23G A67G A118G | 1.38
A96G A114U U131C A135G | 0.08
A22U A55G A60G U100C A118G U122C | 1.24
G28A C34A A60G A110C U133C | 0.26
U2C A52G A78U A110G A134U | 0.02
A51G U57G A95G A126G A135G | 1.27
U87A A94G U108C U139A | 0.01
A11U C35A A62G A98G A110U | 0.35
U2G A60G U87C U102A A117C | 0.14
A86G A110G A114G C121U | 0.07
A27G U43C A55G | 1.07
A63C U87C U103C | 0.81
U12C A51G A52G U122C | 1.55
U12A A36C A51G A63G U120C | 0.9

Variant | self-cleavage
U37C A64G A91G A111G A116G | 0.02
U9A A63G U122A | 0.78
A36U A47U U100C C109U | 0.68
A62G A63G A111G | 0.02
G74A A91G U124G | 0.06
A36G A59G A134G | 0.47
A52G A56G A118G U130C | 1.08
A78U U102C U108C | 0.01
A22G A54G A118U | 1.37
C42U A52G U70A A92G U127C | 0.22
A18U A90G U108C | 0.01
U3C A91U A92G | 1.14
U87C U120C U131C | 0.19
A51G U102A U132C | 0.72
A5G A33U A59G | 0.59
U9C G28U U43C A52G | 0.79
U3A A11G A63G A135C | 0.41
A63G A90U U131C | 1.89
A54G G84C U132C | 0.47
U12A A24C A33G C40U A56G A82G | 0.43
A22G A60G U124C U130C | 0.4
U19C A68G A111G | 0.02
A33U U37A A62G | 1.31
A23G A47G A96G | 1.5

Variant | self-cleavage
A23G U72C A91G | 0.28
A18G A68C A96G A134G | 2.13
A24G U87C A129G U130C | 0.36
A59G A60G U100C U122C | 2.96
A30U A69G A126G U130C | 0.48
A69G A78U U122C | 0.05
U3C A52G A55G A116G A129G | 0.58
A23G A60U U72G | 0.48
U9C A54G U70C A91G U102C A129C | 0.48
A30G A47U A94G A129C | 0.39
A13C A62G A91G A94C | 0.45
A51U A86U U124A | 1.52
A55G A89U A94U U132C | 1.8
A24C A51G A89G A96G | 1.09
A67G A92G U103C U139C | 0.94
A33G A69G A95G A110G | 0.09
C32G U38A A47G U72C A82U | 0.25
U26A A63G A68G A111G A117G | 0.02
A23G A27G A92G C128U | 1.14
A13G A24U U43C A66G | 1.87
U19C U87C U108C | 0.01
U49C G104A A117G U124G | 0.02
A27U A30G U100C U132C | 1.62
A67G A91G C113U U122C | 0

Variant | self-cleavage
A5C G74A U87C | 0.19
A52G A55G U102C | 2.94
C25A A111G A140U | 0
A22U A24G U70C | 1.31
A27G A116U A135U | 0.45
A47G A60G A116G | 0.12
A52G U87C U131C | 1.53
A5U A64U A135U | 1.36
A47G A89G A95G A98G | 0.99
U39A A59G A86G U97C | 0.57
U12C A59U U100C | 1.56
U39A A89C A94G | 2.4
A18G U57A A92G U122C | 0.58
U49C A117G U122A U132C | 1.23
A62U A92G U132C | 0.78
A11C U43C U100A | 0.5
U70C A78G A96G U103C A135G | 0.11
G21A A90G A92G A116G | 0.14
U38C A52G A82G | 0.87
A52G A54G C61U | 1.83
A62G A68U U132A | 1.09
A55G A60G A69U A117G A126G | 0.58
G75C A92U A118U U139C | 0.05
A54G A82U A96G A118G | 0.19

Variant | self-cleavage
A52G A60G A90U | 1.62
A22G A60G A78G A86G | 0.11
C6U U12A U131C | 0.86
U12A A66G U70C | 1.05
A68G U70C A114U A116G A118G | 0.04
G80A U102C A140G | 1.07
A11G A33G A66G A90G U122C | 0.44
A24G A116G A140U | 0.48
G1U U49C A64G G83U A126U | 0.44
U49A U87A A98G U108C A118U | 0
A13G A23G U72A A91G U103C G137U | 0.19
A66G A69G U108A | 0.05
A23U U43A C76U | 0.12
A64G A67G A78C U87C U100G A129G | 0.09
A78G U108C A126G | 0.01
A13G A22G A24G A60G A96G A129G G138A | 0.55
A13U U72C U103C A116G A126G U130C | 0.01
U72G A82G U100C U103G | 0.01
G41A U43C A92U | 0.63
A94G A98G U132C | 0.54
A13G A67G U127C | 0.65
A67G A78U U102A U108C | 0.01
U39A G48A U122C | 0.17
